# In PubChem BioAssay (Tox21):
# Several values for one entry are separate records, joined by “and”; a condition that tells them apart may be missing. Identical values can stand only once. Inconclusive results, whose numbers are uncertain, are shown with a selection of clear calls. For some of these results: Where the call is inconclusive, the potency comes from a doubtful curve fit. Some structures have more than one record in an assay (separate samples or runs), and their calls can disagree. Activity calls are given as the source filed them. Unless noted, calls follow the shape of the dose curve; as a rule, active = well fitted curve in the direction sought with a large enough effect in the repeat runs; inconclusive = weak or mixed curves; inactive = no such curve, though single readings can be large; an effect the other way counts as inactive or inconclusive.
# Legend:
# [1] = qHTS assay to identify small molecule that activate the aryl hydrocarbon receptor (AhR) signaling pathway - cell viability counter screen (AID 743086); also: nearly all actives have a fitted effect of over 45% in size
# Summary of the method: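 HepG2-AhR-luc (HG2L7.5c1) cells, 4000/well, were preincubated 5 h at 37C, exposed to compound in qHTS format for 24 hr at 37C, then given CellTiter-Fluor for 30 min; viability was read as fluorescence in the reporter wells.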
# [2] = target: Peroxisome proliferator-activated receptor gamma (Homo sapiens) (UniProt P37231); assay: qHTS assay to identify small molecule agonists of the peroxisome proliferator-activated receptor gamma (PPARg) signaling pathway (AID 743094; active = well fitted activation curve with a large enough effect in the signal ratio in the repeat runs, not every such curve was filed as active; inconclusive = weak or mixed curves, or effect the other way; inactive = no such curve, though single readings can be large or run the other way; the % refers to the signal ratio; as to activation: % is scaled to controls: 0 for no effect and ±100 for the full control effect); settings: HEK293H PPARg-UAS-bla, beta-lactamase FRET ratio, 17 h; activation: at 57 µM (top of the series) unless noted
# Sequence of UniProt P37231 (P37231 whole entry, looked up): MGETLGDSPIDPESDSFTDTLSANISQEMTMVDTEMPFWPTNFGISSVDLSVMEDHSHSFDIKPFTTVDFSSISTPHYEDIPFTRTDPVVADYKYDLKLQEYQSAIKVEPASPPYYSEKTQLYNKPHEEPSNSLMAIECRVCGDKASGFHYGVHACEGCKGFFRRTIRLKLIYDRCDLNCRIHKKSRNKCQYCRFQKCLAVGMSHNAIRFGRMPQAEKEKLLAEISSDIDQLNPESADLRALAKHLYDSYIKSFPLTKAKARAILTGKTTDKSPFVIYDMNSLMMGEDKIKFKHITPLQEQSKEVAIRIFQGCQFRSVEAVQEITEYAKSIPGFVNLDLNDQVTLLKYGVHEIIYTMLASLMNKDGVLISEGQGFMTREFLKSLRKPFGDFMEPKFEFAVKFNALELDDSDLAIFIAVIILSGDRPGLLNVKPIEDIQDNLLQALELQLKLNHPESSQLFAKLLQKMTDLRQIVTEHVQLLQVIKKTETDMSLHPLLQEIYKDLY
# Summary of the method: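 Stably transfected HEK293H cells (GeneBLAzer PPARg UAS-bla) were incubated with test substances for 17 h at 37C after a 5 h pre-incubation; beta-lactamase activity was then detected by FRET substrate fluorescence.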
# [3] = target: Peroxisome proliferator-activated receptor gamma (Homo sapiens) (UniProt P37231); assay: qHTS assay to identify small molecule antagonists of the peroxisome proliferator-activated receptor gamma (PPARg) signaling pathway (AID 743191; calls by dose curve; also: nearly all actives have a fitted effect of over 30% in size); settings: HEK293H PPARg-UAS-bla, beta-lactamase ratio, antagonist, 17 h; ratio activity, negative = inhibition: at 62.6 µM (top of the series) unless noted
# Summary of the method: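 GeneBLAzer PPARg UAS-bla HEK293H cells carrying a UAS-driven beta-lactamase reporter were plated at 3000 cells/well, preincubated 5 h at 37C, then given compound for 17 h at 37C; LiveBLAzer B/G FRET substrate was read after 1 h at room temperature.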
# [4] = qHTS assay to identify small molecule antagonists of the peroxisome proliferator-activated receptor gamma (PPARg) signaling pathway - cell viability counter screen (AID 743194); settings: PPARg-bla HEK293H viability, CellTiter-Glo luminescence, 17 h, co-treated with 50 nM rosiglitazone; activity change, negative = cytotoxicity: at 62.6 µM (top of the series) unless noted; also: nearly all actives have a fitted effect of over 55% in size
# Summary of the method: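 PPARg-UAS-bla HEK293H cells were plated, rested 5 h at 37 C, then treated with compounds plus rosiglitazone (50 nM final) for 17 h at 37 C; viability was then read by CellTiter-Glo luminescence after 30 min at room temperature.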
# [5] = qHTS assay for small molecule agonists of the antioxidant response element (ARE) signaling pathway (AID 743202; active = well fitted activation curve with a large enough effect in the signal ratio in the repeat runs, not every such curve was filed as active; inconclusive = weak or mixed curves, or effect the other way; inactive = no such curve, though single readings can be large or run the other way; the % refers to the signal ratio; as to activation: % is scaled to controls: 0 for no effect and ±100 for the full control effect); settings: HepG2 ARE-bla reporter, beta-lactamase FRET, 16 h; activation: at 73.3 µM (top of the series) unless noted
# Summary of the method: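 Compounds delivered in DMSO to ARE-bla HepG2 cells (2,000 cells/well, pre-incubated 5 h) and left 16 h at 37 C. LiveBLAzer B/G FRET substrate then added for 2 h at RT before fluorescence reading.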
# [6] = qHTS assay for small molecule activators of the heat shock response signaling pathway - cell viability counter screen (AID 743209); settings: HSE-bla HeLa viability, CellTiter-Glo luminescence, 5 h; activity change, negative = cytotoxicity: at 62.6 µM (top of the series) unless noted; also: nearly all actives have a fitted effect of over 50% in size
# Summary of the method: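 Quantitative HTS format, Tox21 10K library. HeLa cells carrying an HSE-driven beta-lactamase reporter were treated 5 h at 37 C, then assessed for viability by CellTiter-Glo luminescence.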
# [7] = qHTS assay to identify small molecule agonists of the peroxisome proliferator-activated receptor delta (PPARd) signaling pathway - cell viability counter screen (AID 743211); settings: PPARd-bla HEK293H viability, CellTiter-Glo luminescence, 17 h; activity change, negative = cytotoxicity: at 62.6 µM (top of the series) unless noted; also: nearly all actives have a fitted effect of over 55% in size
# Summary of the method: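 Following 5 h plating at 37 C and 5% CO2, PPARd UAS-bla HEK293H cells took up test compounds for 17 h. Viability was quantified by luminescence 30 min after CellTiter-Glo addition at room temperature.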
# [8] = qHTS assay to identify small molecule antagonists of the peroxisome proliferator-activated receptor delta (PPARd) signaling pathway - cell viability counter screen (AID 743213); settings: PPARd-bla HEK293H viability, CellTiter-Glo luminescence, 17 h; viability change, negative = cytotoxic: at 62 µM (top of the series) unless noted; also: nearly all actives have a fitted effect of over 50% in size
# Summary of the method: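 PPARd-bla HEK293H cells were treated with compounds plus agonist L165041 (300 nM final) for 17 h at 37 C. Viability was then read in the same wells by CellTiter-Glo luminescence after 30 min at room temperature.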
# [9] = target: Peroxisome proliferator-activated receptor delta (Homo sapiens) (UniProt Q03181); assay: qHTS assay to identify small molecule antagonists of the peroxisome proliferator-activated receptor delta (PPARd) signaling pathway (AID 743215; active = well fitted inhibition curve with a large enough effect in the signal ratio in the repeat runs, not every such curve was filed as active; inconclusive = weak or mixed curves, or effect the other way; inactive = no such curve, though single readings can be large or run the other way; the % refers to the signal ratio;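 also: cells stimulated with agonist L165041 at 300 nM final during compound exposure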); settings: HEK293H PPARd-UAS-bla, beta-lactamase FRET ratio, antagonist, 17 h; ratio activity, negative = inhibition: at 62 µM (top of the series) unless noted
# Sequence of UniProt Q03181 (Q03181 whole entry, looked up): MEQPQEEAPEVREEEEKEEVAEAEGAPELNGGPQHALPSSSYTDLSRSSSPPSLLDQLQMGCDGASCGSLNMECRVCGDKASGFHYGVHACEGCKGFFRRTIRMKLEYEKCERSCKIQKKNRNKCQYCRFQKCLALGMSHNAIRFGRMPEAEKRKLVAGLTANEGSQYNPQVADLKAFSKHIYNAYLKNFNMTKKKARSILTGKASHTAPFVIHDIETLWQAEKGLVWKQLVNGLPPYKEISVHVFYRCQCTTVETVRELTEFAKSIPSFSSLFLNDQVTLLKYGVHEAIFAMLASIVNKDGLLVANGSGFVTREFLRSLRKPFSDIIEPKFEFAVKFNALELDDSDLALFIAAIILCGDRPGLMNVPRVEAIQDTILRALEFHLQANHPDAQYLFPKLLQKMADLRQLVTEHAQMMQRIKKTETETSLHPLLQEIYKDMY
# Summary of the method: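 Antagonist-mode beta-lactamase reporter screen: HEK293H cells with UAS-bla under PPARd control, stimulated by 300 nM L165041 (final) alongside test compound for 17 h at 37 C, then FRET fluorescence after 2 h substrate incubation.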
# [10] = qHTS assay to identify small molecule agonists of the farnesoid-X-receptor (FXR) signaling pathway - cell viability counter screen (AID 743218); settings: FXR-bla HEK293T viability, CellTiter-Glo luminescence, 16 h; viability change, negative = cytotoxic: at 62.6 µM (top of the series) unless noted; also: nearly all actives have a fitted effect of over 45% in size
# Summary of the method: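 In GeneBLAzer FXR-UAS-bla HEK 293T cells, compounds act for 16 h at 37 C. Cell viability is then scored in the reporter wells by CellTiter-Glo, 30 min at RT, luminescence.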
# [11] = target: Bile acid receptor (Homo sapiens) (UniProt Q96RI1); assay: qHTS assay to identify small molecule agonists of the farnesoid-X-receptor (FXR) signaling pathway (AID 743220; active = well fitted activation curve with a large enough effect in the signal ratio in the repeat runs, not every such curve was filed as active; inconclusive = weak or mixed curves, or effect the other way; the % refers to the signal ratio; as to activation: % is scaled to controls: 0 for no effect and ±100 for the full control effect); settings: HEK293T FXR-UAS-bla, beta-lactamase FRET ratio, 16 h; activation: at 62.6 µM (top of the series) unless noted
# Sequence of UniProt Q96RI1 (Q96RI1 whole entry, looked up): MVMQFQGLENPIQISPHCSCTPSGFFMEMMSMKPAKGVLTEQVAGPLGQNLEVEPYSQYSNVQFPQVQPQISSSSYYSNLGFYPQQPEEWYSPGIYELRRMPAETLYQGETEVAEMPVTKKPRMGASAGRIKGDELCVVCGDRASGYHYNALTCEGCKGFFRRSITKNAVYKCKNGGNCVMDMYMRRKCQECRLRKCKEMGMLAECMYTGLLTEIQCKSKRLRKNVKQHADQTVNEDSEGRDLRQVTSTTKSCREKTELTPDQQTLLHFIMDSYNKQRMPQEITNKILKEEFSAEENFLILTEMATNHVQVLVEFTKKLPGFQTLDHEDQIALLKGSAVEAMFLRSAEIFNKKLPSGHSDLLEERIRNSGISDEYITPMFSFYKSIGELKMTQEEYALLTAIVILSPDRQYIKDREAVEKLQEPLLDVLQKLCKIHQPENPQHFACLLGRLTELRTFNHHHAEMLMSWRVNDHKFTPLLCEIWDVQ
# Summary of the method: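 Beta-lactamase reporter under UAS control in GeneBLAzer FXR HEK 293T cells (5000/well) measured with LiveBLAzer FRET substrate after 2 h at room temperature. Compound exposure lasted 16 h at 37C.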
# [12] = target: Vitamin D3 receptor (Homo sapiens) (UniProt P11473); assay: qHTS assay to identify small molecule antagonists of the vitamin D receptor (VDR) signaling pathway (AID 743223; active = well fitted inhibition curve with a large enough effect in the signal ratio in the repeat runs, not every such curve was filed as active; inconclusive = weak or mixed curves, or effect the other way; inactive = no such curve, though single readings can be large or run the other way; the % refers to the signal ratio; as to activity change, negative = inhibition: % is scaled to controls: 0 for no effect and ±100 for the full control effect); settings: VDR-UAS-bla HEK293T, beta-lactamase FRET ratio, 16 h; activity change, negative = inhibition: at 61 µM (top of the series) unless noted
# Sequence of UniProt P11473 (P11473 whole entry, looked up): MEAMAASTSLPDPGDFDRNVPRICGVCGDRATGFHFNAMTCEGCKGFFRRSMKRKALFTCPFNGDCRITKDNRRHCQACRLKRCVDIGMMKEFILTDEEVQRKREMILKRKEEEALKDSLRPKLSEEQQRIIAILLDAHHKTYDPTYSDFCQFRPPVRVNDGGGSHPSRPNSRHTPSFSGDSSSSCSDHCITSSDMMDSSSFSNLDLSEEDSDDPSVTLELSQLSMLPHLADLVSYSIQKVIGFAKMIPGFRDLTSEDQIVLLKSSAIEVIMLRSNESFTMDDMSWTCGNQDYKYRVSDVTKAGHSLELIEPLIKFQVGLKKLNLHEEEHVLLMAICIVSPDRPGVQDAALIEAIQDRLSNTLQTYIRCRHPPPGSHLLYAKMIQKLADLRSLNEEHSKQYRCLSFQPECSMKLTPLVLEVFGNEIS
# Summary of the method: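 Beta-lactamase activity in VDR-bla cells is measured by FRET substrate fluorescence (2 h, room temperature) after cells spend 16 h at 37C with test compound and 3 nM final 1alpha,25-dihydroxyvitamin D3.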
# [13] = qHTS assay to identify small molecule agonists of the vitamin D receptor (VDR) signaling pathway - cell viability counter screen (AID 743224); settings: VDR-bla HEK293T viability, CellTiter-Glo luminescence, 16 h; activity change, negative = cytotoxicity: at 62.6 µM (top of the series); also: nearly all actives have a fitted effect of over 50% in size
# Summary of the method: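 VDR-bla cell line, quantitative HTS format; 16 h compound incubation (37C, 5% CO2); ATP-based CellTiter-Glo luminescence measured in the reporter assay wells.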
# [14] = target: Aryl hydrocarbon receptor (Homo sapiens) (UniProt P35869); assay: qHTS assay to identify small molecule that activate the aryl hydrocarbon receptor (AhR) signaling pathway (AID 743085); also: nearly all actives have a fitted effect of over 15% in size
# Sequence of UniProt P35869 (P35869 whole entry, looked up): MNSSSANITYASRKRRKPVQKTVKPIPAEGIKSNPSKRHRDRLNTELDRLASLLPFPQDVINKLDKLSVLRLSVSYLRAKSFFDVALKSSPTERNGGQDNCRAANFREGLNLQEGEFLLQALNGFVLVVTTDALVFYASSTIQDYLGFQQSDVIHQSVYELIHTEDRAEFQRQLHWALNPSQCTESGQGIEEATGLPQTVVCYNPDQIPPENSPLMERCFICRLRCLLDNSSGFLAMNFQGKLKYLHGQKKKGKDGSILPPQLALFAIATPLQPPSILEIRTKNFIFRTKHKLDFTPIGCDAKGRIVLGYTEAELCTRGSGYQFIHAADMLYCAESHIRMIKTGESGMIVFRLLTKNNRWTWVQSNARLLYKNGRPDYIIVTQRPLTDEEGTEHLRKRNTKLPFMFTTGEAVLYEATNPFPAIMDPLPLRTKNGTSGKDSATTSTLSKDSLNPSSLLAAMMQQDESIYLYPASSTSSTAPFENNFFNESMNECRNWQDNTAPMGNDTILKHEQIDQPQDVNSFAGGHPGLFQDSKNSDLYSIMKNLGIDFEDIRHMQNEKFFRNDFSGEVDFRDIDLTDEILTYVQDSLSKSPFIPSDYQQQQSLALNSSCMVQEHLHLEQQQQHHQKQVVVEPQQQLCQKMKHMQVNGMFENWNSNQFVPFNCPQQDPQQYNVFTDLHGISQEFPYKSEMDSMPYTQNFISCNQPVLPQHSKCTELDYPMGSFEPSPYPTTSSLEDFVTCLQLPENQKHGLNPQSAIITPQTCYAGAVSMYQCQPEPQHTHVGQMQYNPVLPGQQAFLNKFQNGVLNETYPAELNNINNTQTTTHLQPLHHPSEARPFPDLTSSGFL
# Summary of the method: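 Measured in HG2L7.5c1 cells: CellTiter-Fluor signal (30 min incubation, 37C) for viability, then luciferase luminescence (30 min, room temperature). Compound contact time was 24 h at 37C, following a 5 h pre-incubation.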
# [15] = target: Vitamin D3 receptor (Homo sapiens) (UniProt P11473); assay: qHTS assay to identify small molecule agonists of the vitamin D receptor (VDR) signaling pathway (AID 743222; calls by dose curve); settings: HEK293T VDR-UAS-bla, beta-lactamase FRET ratio, 16 h; activation: at 63.5 µM (top of the series) unless noted
# Summary of the method: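 Agonist activity measured in VDR-bla reporter cells. Exposure 16 h, 37C, 5% CO2; detection by B/G FRET substrate, 2 h RT.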
# [16] = qHTS assay for small molecule activators of the heat shock response signaling pathway (AID 743210; active = well fitted activation curve with a large enough effect in the signal ratio in the repeat runs, with a control signal flat, not every such curve was filed as active; inconclusive = weak or mixed curves; the % refers to the signal ratio); settings: HeLa HSE-bla reporter, beta-lactamase ratio, 5 h; activation: at 62.6 µM (top of the series) unless noted
# Summary of the method: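 Reporter gene assay: HeLa cells stably bearing an HSE-bla construct, compound treatment 5 h at 37 C, LiveBLAzer substrate 2.5 h at RT, fluorescence intensity.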
# [17] = qHTS assay for small molecule agonists of the antioxidant response element (ARE) signaling pathway - cell viability counter screen (AID 743203; calls by dose curve; also: nearly all actives have a fitted effect of over 55% in size); settings: ARE-bla HepG2 viability, CellTiter-Glo luminescence, 16 h; viability change, negative = cytotoxic: at 73.3 µM (top of the series)
# Summary of the method: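 Cells (ARE-bla HepG2, 2,000/well) receive DMSO-dissolved compounds after a 5 hrs rest. Plates incubate 16 hrs at 37C/5% CO2. CellTiter-Glo luminescence is then recorded after 30 min at room temperature.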
# [18] = target: Bile acid receptor (Homo sapiens) (UniProt Q96RI1); assay: qHTS assay to identify small molecule antagonists of the farnesoid-X-receptor (FXR) signaling pathway (AID 743217; active = well fitted inhibition curve with a large enough effect in the signal ratio in the repeat runs, not every such curve was filed as active; inconclusive = weak or mixed curves, or effect the other way; inactive = no such curve, though single readings can be large or run the other way; the % refers to the signal ratio); settings: HEK293T FXR-UAS-bla, beta-lactamase ratio, CDCA-stimulated, 16 h; activity change, negative = inhibition: at 62.6 µM (top of the series) unless noted
# Summary of the method: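 Beta-lactamase reporter under UAS control in HEK 293T cells; compound exposure 16 h at 37 °C in the presence of chenodeoxycholic acid (50 uM final); signal from B/G FRET substrate after 2 h at room temperature.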
# Potency is read from the fitted curve at half-maximal effect; tags tell the direction and shape of the fitted curve or compound fluorescence and quenching.
compound,measurement,setting,value
CCCCC/C=C/C=C/C=O,Potency,[1],"inconclusive: 27.1 µM [rising, partial curve, poor fit]"
same,Potency,[2],"inconclusive: 54.5 µM [rising, single point]"
same,activation,[2],inconclusive: -17.9%
same,Potency,[3],"inconclusive: 38.6 µM [rising, partial curve] and inconclusive: 49 µM [rising, partial curve]"
same,Potency,[4],active: 38.6 µM and active: 38.9 µM
same,Potency,[5],"inconclusive: 76.3 µM [falling, single point]"
same,activation,[5],inconclusive: 42.8%
same,Potency,[6],"inconclusive: 49 µM [cytotoxic, partial curve, poor fit]"
same,Potency,[7],"inconclusive: 54.9 µM [cytotoxic, single point]"
same,Potency,[8],"inconclusive: 4360 nM [cytotoxic, full curve, poor fit]"
same,Potency,[9],inconclusive: 38.9 µM
same,Potency,[10],"inconclusive: 61.7 µM [cytotoxic, single point]"
same,activation,[11],inconclusive: 4.33%
same,Potency,[12],"inconclusive: 69.2 µM [rising, single point]"
same,"activity change, negative = inhibition",[12],inconclusive: -5.77%
same,Potency,[13],active: 49 µM
N[C@@H](C(=O)N[C@@H]1C(=O)N2C(C(=O)O)=C(Cl)CS[C@H]12)c1ccccc1,Potency,[14],"inconclusive: 37.6 µM [activator, partial curve, poor fit]"
same,activation,[15],inactive: 4.64% [at 13.4 µM]
C=C(CC)C(=O)c1ccc(OCC(=O)O)c(Cl)c1Cl,Potency,[1],active: 68.1 µM
same,Potency,[2],inconclusive: 24.4 µM [fluorescent]
same,activation,[2],inconclusive: 0.394%
same,Potency,[3],"inconclusive: 38.6 µM [rising, partial curve] and inconclusive: 16.8 µM [rising, partial curve]"
same,Potency,[6],"inconclusive: 21.7 µM [cytotoxic, single point] and active: 18.8 µM"
same,Potency,[16],inconclusive: 25.3 µM and inconclusive: 18.8 µM
same,Potency,[7],inactive
same,Potency,[13],"inconclusive: 48.6 µM [cytotoxic, partial curve, poor fit]"
CCOc1ccccc1C(N)=O,Potency,[14],"inconclusive: 34.4 µM [activator, partial curve, poor fit]"
same,Potency,[5],inactive
same,Potency,[6],"inconclusive: 0.0021 µM [cytotoxic, full curve, poor fit]"
same,Potency,[16],inconclusive: 18.8 µM [activator]
same,Potency,[7],"inconclusive: 33.5 µM [cytotoxic, single point]"
same,"viability change, negative = cytotoxic",[8],inconclusive: -31.2% [cytotoxic]
same,Potency,[9],inconclusive: 33.5 µM [inhibitor]
same,Potency,[11],"inconclusive: 668 nM [rising, full curve, poor fit]"
same,Potency,[15],"inconclusive: 21.1 µM [partial curve, poor fit]"
same,Potency,[13],"inconclusive: 33.5 µM [cytotoxic, single point]"
NC(=O)CC[C@@H]1NC(=O)[C@H](Cc2ccccc2)NC(=O)[C@H](Cc2ccc(O)cc2)NC(=O)CCSSC[C@@H](C(=O)N2CCC[C@H]2C(=O)N[C@@H](CCCN=C(N)N)C(=O)NCC(N)=O)NC(=O)[C@H](CC(N)=O)NC1=O,Potency,[14],"inconclusive: 33.5 µM [activator, single point]"
same,Potency,[5],"inconclusive: 3.35 µM [rising, single point]"
same,Potency,[15],inactive
O=C(O)CCC(=O)C(=O)O,Potency,[14],inactive
same,"ratio activity, negative = inhibition",[3],inconclusive: -1.28%
same,Potency,[5],inactive
same,Potency,[12],inactive
Cc1cc(N)c(S(=O)(=O)O)cc1Cl,Potency,[14],"inconclusive: 39 µM [activator, partial curve, poor fit]"
same,Potency,[4],inactive
CCC=CC#N,Potency,[14],"inconclusive: 52.8 µM [activator, partial curve]"
same,"ratio activity, negative = inhibition",[3],inconclusive: -19.2%
same,Potency,[10],"inconclusive: 0.03 µM [rising, full curve, poor fit]"
O=C(O)c1cccc([N+](=O)[O-])c1,Potency,[14],"inconclusive: 24.2 µM [activator, partial curve]"
same,Potency,[8],"inconclusive: 490 nM [cytotoxic, single point]"
O=[N+]([O-])c1cc(C2CCCCC2)c(O)c([N+](=O)[O-])c1,Potency,[1],active: 30.5 µM
same,activation,[2],inconclusive: 0.0255%
same,Potency,[3],"inconclusive: 8.69 µM [rising, full curve]"
same,Potency,[4],"inconclusive: 275 nM [cytotoxic, full curve, poor fit]"
same,Potency,[5],"inconclusive: 30.5 µM [rising, partial curve]"
same,Potency,[17],active: 24.3 µM
same,Potency,[16],inconclusive: 43.5 µM
same,Potency,[7],"inconclusive: 10.9 µM [cytotoxic, partial curve]"
same,Potency,[8],"inconclusive: 975 nM [cytotoxic, full curve, poor fit]"
same,Potency,[9],"inconclusive: 0.615 µM [fluorescent, full curve, poor fit]"
same,Potency,[18],inconclusive: 6.9 µM
same,Potency,[15],"inconclusive: 24.5 µM [rising, partial curve]"
same,Potency,[12],"inconclusive: 17.3 µM [fluorescent, partial curve]"
same,Potency,[13],"inconclusive: 1.54 µM [cytotoxic, full curve]"
